{"source": "PubChem BioAssay AID360", "about": "(National Center for Advancing Translational Sciences (NCATS), 2006)", "note": "Out of some 48,000 compounds screened, about 550 (1.1%) were called active. Inconclusive results (about 4%) are left out. Cut-off read from the data, not from the text of the source: active = potency below about 15 µM; inconclusive = mostly about 16 µM to 33 µM; inactive = weaker than that. This is one part of the list. Potency is the fitted concentration of half-maximal effect.", "data": [{"target": "Lysosomal acid glucosylceramidase (Homo sapiens) (UniProt P04062)", "sequence (P04062 whole entry, looked up)": "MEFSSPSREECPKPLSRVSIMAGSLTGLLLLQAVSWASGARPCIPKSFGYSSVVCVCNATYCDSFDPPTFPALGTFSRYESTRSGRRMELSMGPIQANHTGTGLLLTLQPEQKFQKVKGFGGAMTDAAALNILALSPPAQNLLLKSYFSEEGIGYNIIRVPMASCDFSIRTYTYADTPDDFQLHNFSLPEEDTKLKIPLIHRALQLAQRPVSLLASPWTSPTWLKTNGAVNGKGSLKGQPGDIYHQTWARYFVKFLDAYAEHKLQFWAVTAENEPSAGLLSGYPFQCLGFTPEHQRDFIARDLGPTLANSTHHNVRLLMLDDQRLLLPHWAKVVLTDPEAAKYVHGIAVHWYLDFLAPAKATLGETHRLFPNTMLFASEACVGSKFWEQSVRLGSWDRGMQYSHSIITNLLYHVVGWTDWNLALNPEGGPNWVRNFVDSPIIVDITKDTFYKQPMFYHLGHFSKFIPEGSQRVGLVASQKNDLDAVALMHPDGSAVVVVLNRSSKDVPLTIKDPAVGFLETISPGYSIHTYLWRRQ", "experiment": "Glucocerebrosidase;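 note: the screen sought inhibitors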", "settings": "purified enzyme, resorufin glucoside fluorescence (screen aimed at inhibitors), 20 min; series mostly up to 77 µM", "method_in_brief": "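Compounds titrated against 0.2 nM normal enzyme, 30 uM resorufin beta-D-glucopyranoside substrate, citrate/phosphate buffer with taurocholate and tween-20, pH 5.9. Reaction ran 20 min at room temperature; fluorescence (Ex 548/Em 600) gave AC50.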", "values": [{"smiles": "Cc1ccc2nc(NC(=O)CN3CCOCC3)sc2c1", "Potency": "inactive: > 76.9 µM"}, {"smiles": "CN(C)c1ccc(C(=S)N2CCN(c3ccccc3)CC2)cc1", "Potency": "inactive: > 76.9 µM"}, {"smiles": "COc1ccc(C(=O)N(Cc2ccc(N(C)C)cc2)C2CCS(=O)(=O)C2)cc1", "note": "(stereo not given)", "Potency": "inactive: > 76.9 µM"}, {"smiles": "COc1ccc(CC2NCCC3(O)CCCCC23)cc1", "note": "(stereo not given)", "Potency": "inactive: > 76.9 µM"}, {"smiles": "O=C(O)c1cccc(COCC(F)(F)C(F)F)c1", "Potency": "inactive: > 76.9 µM"}, {"smiles": "COC(=O)C1=C(CSc2nnnn2C)NC(=O)NC1c1cc(C)ccc1C", "note": "(stereo not given)", "Potency": "inactive: > 76.9 µM"}, {"smiles": "Cc1ccc(CCN2CC(C(=O)NCCCN(C)Cc3ccccc3)CC2=O)cc1", "note": "(stereo not given)", "Potency": "inactive: > 76.9 µM"}, {"smiles": "CC(C)(C)c1ccc(OCC(=O)NC2CCS(=O)(=O)C2)cc1", "note": "(stereo not given)", "Potency": "inactive: > 76.9 µM"}, {"smiles": "O=C(O)C1CCCN1C(=O)Nc1ccccc1", "note": "(stereo not given)", "Potency": "inactive: > 76.9 µM"}, {"smiles": "c1ccc(OCCSc2nnc3sc4ccccc4n23)cc1", "Potency": "inactive: > 76.9 µM"}, {"smiles": "Cc1ccc2[nH]c(=O)c(CN(CCc3ccccc3)Cc3nnnn3CC3CCCO3)cc2c1", "note": "(stereo not given)", "Potency": "inactive: > 76.9 µM"}, {"smiles": "Cc1cc(NC(=O)CSc2nnc(CNc3ccc(F)cc3)n2C2CCCCC2)no1", "Potency": "inactive: > 76.9 µM"}, {"smiles": "COc1cc(OC)c(NC2=NCCCCC2)cc1Cl", "Potency": "inactive: > 76.9 µM"}, {"smiles": "Cc1nc(NC(=O)CSc2nnnn2Cc2ccccc2)sc1C", "Potency": "inactive: > 76.9 µM"}, {"smiles": "COc1cccc(N2C(=O)N(c3ccccc3Cl)C3CS(=O)(=O)CC32)c1", "note": "(stereo not given)", "Potency": "inactive: > 76.9 µM"}, {"smiles": "CCOC(=O)N1CCN(S(=O)(=O)c2ccc3c(c2)CCN3C(=O)CC)CC1", "Potency": "inactive: > 76.9 µM"}, {"smiles": "COCCN(C(=O)C1CC1)c1nnc(-c2cccc(C)c2)s1", "Potency": "inactive: > 76.9 µM"}, {"smiles": "COC(=O)CS(=O)(=O)c1cc(Br)cc2c1N(C(C)=O)CC2", "Potency": "inactive: > 76.9 µM"}, {"smiles": "CCOC(=O)c1cc2cc(-c3c(C(=O)OCC)oc4cc(O)cc(O)c4c3=O)ccc2o1", "Potency": "inactive: > 76.9 µM"}, {"smiles": "CCOC(=O)C1CCCN(CC(=O)Nc2c(F)c(F)c(F)c(F)c2F)C1", "note": "(stereo not given)", "Potency": "inactive: > 76.9 µM"}, {"smiles": "CCc1ccc2[nH]c(=O)c(C(c3nnnn3Cc3ccccc3)N3CCOCC3)cc2c1", "note": "(stereo not given)", "Potency": "inactive: > 76.9 µM"}, {"smiles": "O=C(Nc1ccc2c(c1)OCO2)N1CCN(c2cccc(C(F)(F)F)c2)CC1", "Potency": "inactive: > 76.9 µM"}, {"smiles": "C=CCn1c(COc2ccc(CC)cc2)nnc1SCC(=O)N(C)C1CCS(=O)(=O)C1", "note": "(stereo not given)", "Potency": "inactive: > 76.9 µM"}, {"smiles": "COC(=O)CCC(=O)Nc1ccc(Cl)c(Cl)c1", "Potency": "inactive: > 76.9 µM"}, {"smiles": "COc1cc(C2NC(=O)c3ccccc3O2)cc(OC)c1OC", "note": "(stereo not given)", "Potency": "inactive: > 76.9 µM"}, {"smiles": "Cc1cc(=O)cc(C)[nH]1", "Potency": "inactive: > 76.9 µM"}, {"smiles": "Cc1ccc(Cl)cc1NC(=O)CSc1nnc(C)n1-c1ccccc1", "Potency": "inactive: > 76.9 µM"}, {"smiles": "COC(=O)c1[nH]c2ccccc2c1NC(=O)CCN1CCN(C2CCCCC2)CC1", "Potency": "inactive: > 76.9 µM"}, {"smiles": "O=C(Nc1cccc(O)c1)c1cccc(S(=O)(=O)N2CCCC2)c1", "Potency": "inactive: > 76.9 µM"}, {"smiles": "O=C(CSc1ccc2nnc(-c3cccc(F)c3)n2n1)NCC1CCCO1", "note": "(stereo not given)", "Potency": "inactive: > 76.9 µM"}, {"smiles": "CCOC(=O)c1cc(CN2CCOCC2)oc1-c1ccccc1", "Potency": "inactive: > 76.9 µM"}, {"smiles": "COc1ccc(O)c(C(=O)c2cnn(C(=O)c3cc(C)oc3C)c2)c1", "Potency": "inactive: > 76.9 µM"}, {"smiles": "C=CCSc1nnc(NC(=O)c2cccc(S(=O)(=O)N3CCOCC3)c2)s1", "Potency": "inactive: > 76.9 µM"}, {"smiles": "CC(=O)c1c(COC(=O)c2ccncc2)nc2ccccc2[n+]1[O-]", "Potency": "inactive: > 76.9 µM"}, {"smiles": "COc1ccc(N2CCn3c2nc2c3c(=O)n(CCCc3ccccc3)c(=O)n2C)cc1", "Potency": "inactive: > 76.9 µM"}, {"smiles": "Cn1c(SCC(=O)NC2CCCC2)nnc1-c1ccc(S(=O)(=O)N2CCOCC2)cc1", "Potency": "inactive: > 76.9 µM"}, {"smiles": "O=C(OCN1C(=O)c2ccccc2C1=O)c1ccc2c(=O)n3c(nc2c1)CCC3", "Potency": "inactive: > 76.9 µM"}, {"smiles": "CCOc1ccccc1N/C=C/C(=O)C(C)(C)C", "Potency": "inactive: > 76.9 µM"}, {"smiles": "Cc1cc(NCCCN2CCOCC2)n2ncc(-c3ccccc3)c2n1", "Potency": "inactive"}, {"smiles": "Cc1[nH]n2c(=O)c3c(nc2c1-c1ccccc1)CCC3", "Potency": "active: 9.49 µM"}, {"smiles": "O=C(CSc1nc(-c2ccccc2)cc(C(F)(F)F)n1)NCCN1CCOCC1", "Potency": "inactive"}, {"smiles": "CCOC(=O)C1CCCN(S(=O)(=O)c2ccc(Br)c(OC)c2)C1", "note": "(stereo not given)", "Potency": "inactive: > 76.9 µM"}, {"smiles": "CN1CC(=O)N(CC(=O)NCc2ccc(F)cc2)c2ccccc2C1=O", "Potency": "inactive: > 76.9 µM"}, {"smiles": "C=CCn1c(Cc2c[nH]c3ccccc23)n[nH]c1=S", "Potency": "inactive: > 76.9 µM"}, {"smiles": "CCc1ccc(NC(=O)CS(=O)CC(=O)NCC2OCCc3ccccc32)cc1", "note": "(stereo not given)", "Potency": "inactive: > 76.9 µM"}, {"smiles": "O=C(NC1CC2CCCC(C1)N2C(=O)NC1CCCCC1)c1ccc(F)cc1", "note": "(stereo not given)", "Potency": "inactive: > 76.9 µM"}, {"smiles": "CC1=C(C#N)C(c2ccc3ncccc3c2)C(C#N)=C(C)N1", "Potency": "inactive: > 76.9 µM"}, {"smiles": "CCN(CC(=O)Nc1ccc(S(N)(=O)=O)cc1)S(=O)(=O)c1cc(C)ccc1OC", "Potency": "inactive: > 76.9 µM"}, {"smiles": "O=C(CCSc1nc2cc(Cl)ccc2o1)N1CCOCC1", "Potency": "inactive: > 76.9 µM"}, {"smiles": "CCOC(=O)c1c(-c2cccs2)csc1NC(=O)CSc1ncn[nH]1", "Potency": "inactive: > 76.9 µM"}, {"smiles": "COc1ccc(C(=O)Nc2cccc(C)c2)cc1S(=O)(=O)N1CCOCC1", "Potency": "inactive: > 76.9 µM"}, {"smiles": "COc1cc(OC)cc(C(=O)N2CCN(c3ccccc3F)CC2)c1", "Potency": "inactive: > 76.9 µM"}, {"smiles": "CC(=O)Nc1ccc(C(=O)CSc2nnc(Cn3nnc4ccccc43)n2C)cc1", "Potency": "inactive: > 76.9 µM"}, {"smiles": "O=C(NCCc1ccccc1)C1CCN(S(=O)(=O)c2cccc3nonc23)CC1", "Potency": "inactive: > 76.9 µM"}, {"smiles": "O=C(NC1CC1)c1scc2c1OCCO2", "Potency": "inactive: > 76.9 µM"}, {"smiles": "c1ccc(C(Cc2nc(-c3ccncc3)no2)c2ccccc2)cc1", "Potency": "inactive: > 76.9 µM"}, {"smiles": "O=C(c1ccccc1)N1CCN(CC2CC=CCC2)CC1", "note": "(stereo not given)", "Potency": "inactive: > 76.9 µM"}, {"smiles": "Cc1ccc(S(=O)(=O)N2CCN(C(=O)CN3C(=O)NC4(CCOc5ccccc54)C3=O)CC2)cc1", "note": "(stereo not given)", "Potency": "inactive: > 76.9 µM"}, {"smiles": "COc1cccc(C(=O)Nc2ncc3c(n2)CC(C)(C)CC3=O)c1", "Potency": "inactive: > 76.9 µM"}, {"smiles": "Cc1c(C(=O)O)sc2ncnc(N3CCCCC3C)c12", "note": "(stereo not given)", "Potency": "inactive: > 76.9 µM"}, {"smiles": "CCOC(=O)c1c(C)nc(-c2ccccc2)nc1NC(=O)C(C)C", "Potency": "inactive: > 76.9 µM"}, {"smiles": "COc1cc(CSc2nnnn2-c2ccc(C)cc2)cc(OC)c1OC", "Potency": "inactive: > 76.9 µM"}, {"smiles": "CC(=O)NCCc1cc2ccc(C)cc2[nH]c1=O", "Potency": "inactive: > 76.9 µM"}, {"smiles": "CCOCC(=O)Nc1cc(-c2cn3cccnc3n2)ccc1C", "Potency": "inactive: > 76.9 µM"}, {"smiles": "CCOC(=O)COn1c(=O)c(=O)n(OC)c2ccccc21", "Potency": "inactive: > 76.9 µM"}, {"smiles": "Cc1cc(C(F)(F)F)nn1CC(=O)NCc1ccccc1", "Potency": "inactive: > 76.9 µM"}, {"smiles": "Cc1cc(C)n2nc(SCC(=O)Nc3c(C)nn(-c4ccccc4)c3C)nc2n1", "Potency": "inactive: > 76.9 µM"}, {"smiles": "Cc1ccccc1C1CC(c2ccccc2OC(F)F)Nc2ncnn21", "note": "(stereo not given)", "Potency": "inactive: > 76.9 µM"}, {"smiles": "O=C(NCC(O)c1ccccc1)c1cccc(S(=O)(=O)N2CCOCC2)c1", "note": "(stereo not given)", "Potency": "inactive: > 76.9 µM"}, {"smiles": "Cc1ccc(C(=O)CSc2nnc(-c3ccco3)o2)o1", "Potency": "inactive: > 76.9 µM"}, {"smiles": "COc1ccccc1-n1c(SCC(=O)N2CCCC2)nc2cccnc21", "Potency": "inactive: > 76.9 µM"}, {"smiles": "CC(C)CC(c1nnnn1C1CCCC1)N1CCN(C(=O)c2ccco2)CC1", "note": "(stereo not given)", "Potency": "inactive: > 76.9 µM"}, {"smiles": "Cc1ccc(-c2nnn(CC(=O)N(c3ccccc3F)C(C(=O)NC3CCCC3)c3ccco3)n2)o1", "note": "(stereo not given)", "Potency": "inactive: > 76.9 µM"}, {"smiles": "Cc1noc(C)c1S(=O)(=O)Nc1c(C)n(C)n(-c2ccccc2)c1=O", "Potency": "inactive: > 76.9 µM"}, {"smiles": "COCCCNC(=O)CCn1c(=O)c2ccccc2n(CC(=O)Nc2ccccc2C)c1=O", "Potency": "inactive: > 76.9 µM"}, {"smiles": "COc1ccc(-c2noc(CN(C)S(=O)(=O)c3ccc(Cl)cc3)n2)cc1OC", "Potency": "inactive: > 76.9 µM"}, {"smiles": "CCOc1ccc(CC(=O)C2C(=O)CCCC2=O)cc1OCC", "Potency": "inactive: > 76.9 µM"}, {"smiles": "Cc1ccc(Nc2nc(N)nc(CSc3nnnn3-c3ccccc3)n2)cc1", "Potency": "inactive: > 76.9 µM"}, {"smiles": "Fc1ccc(N2CCN(C(c3cccs3)c3nnnn3C3CCCC3)CC2)cc1", "note": "(stereo not given)", "Potency": "inactive: > 76.9 µM"}, {"smiles": "CCN(CC)Cc1cc(CC(C(N)=O)C(N)=O)ccc1OC", "Potency": "inactive: > 76.9 µM"}, {"smiles": "Cc1cccc(C(=O)N2CCC(n3nnc4cc(F)ccc43)CC2)c1", "Potency": "inactive: > 76.9 µM"}, {"smiles": "COc1ccc(-c2cc(C(=O)N3CCCc4ccccc43)no2)cc1", "Potency": "inactive: > 76.9 µM"}, {"smiles": "CCOC(=O)c1c(N)nn(C(=O)CC)c1-c1ccccc1", "Potency": "inactive: > 76.9 µM"}, {"smiles": "COc1ccc(OC)c(C(C(=O)NCc2ccco2)N(C(=O)Cn2nnc3ccccc32)C2CC2)c1", "note": "(stereo not given)", "Potency": "inactive: > 76.9 µM"}, {"smiles": "CC(=O)c1c(N=CN(C)C)nc(C)nc1-c1ccccc1", "Potency": "inactive: > 76.9 µM"}, {"smiles": "CCOc1ccccc1N(C(=O)CNC(=O)c1ccco1)C(C(=O)NC1CCCC1)c1cccnc1", "note": "(stereo not given)", "Potency": "inactive: > 76.9 µM"}, {"smiles": "COCCSc1nnc(NC(=O)CSc2ccccc2)s1", "Potency": "inactive: > 76.9 µM"}, {"smiles": "CC(C)(/C=N/O)/[N+]([O-])=C/c1ccco1", "Potency": "inactive: > 76.9 µM"}, {"smiles": "O=C(OCC(=O)c1c[nH]c2ccccc12)C1=COCCO1", "Potency": "inactive: > 76.9 µM"}, {"smiles": "Cc1cccc(NC(=O)Cn2c(C)c(C#N)c3ccccc32)c1C", "Potency": "inactive: > 76.9 µM"}]}]}
